Drawing on the supplement of paper PMC4723716, this text covers viability index for 34 compounds.

Molecules are shown by their SMILES. ± gives the uncertainty stated by the source. Over roughly 9,900 compounds, “viability index relative to DMSO control” has its median near 1; the lowest 2% begin near 0.85. Some of the results follow.

This test relates to Plasmodium falciparum NF54 stage V gametocytes. As to the kind of experiment: viability index relative to DMSO control (fraction); higher = less gametocyte killing. Conditions: 2.5 µM, incubation time: 72 h. Summed up: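 Compound at 2.5 µM was incubated for 72 hr at 37°C under low oxygen with P. falciparum NF54 stage V gametocytes (0.75% gametocytemia, 1.25% hematocrit, 10 µl, serum-free screening medium) in 1,536-well plates. Staining used 3 µl of 2.5 µM MitoTracker Red CMXRos plus 0.13% saponin for one to two hours, and red particles of 20–70 µm2 were counted in one imaged field per well. Each viability index is that count relative to the plate mean of solvent-only wells.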

[1] abbreviates: library set: Broad Institute DOS.

For `COc1ccc2c3c([C@@H](CO)N(C[C@]33CCN(CC3)C(=O)Nc3cccc(F)c3)C(=O)C3CC3)n(C)c2c1`, the viability index (library set: Broad Institute Blood Stage) was determined as 0.807 ± 0.036.
Under setting [1], `O=S(=O)(c1ccccc1)N1CC2(C1)[C@H](c1ccccc1)[C@H](CO)N2CCC(F)(F)F` gave a viability index of 1.075 ± 0.01.
The same measure, in the same setting: to `Cc1noc(C)c1NC(=O)Nc1ccc2c(c1)C(=O)N([C@@H](C)CO)C[C@@H](C)[C@@H](CN(C)S(=O)(=O)c1ccc(F)cc1)O2` belongs 1.06 ± 0.067.
`OC[C@H]1Nc2ccc(C#Cc3ccc(F)cc3)cc2[C@H]2[C@@H]1CCN2Cc1ccc2c(c1)OCO2`: under setting [1], the viability index came out at 1 ± 0.028.
Compound `O=C1CCCc2cnnn2COC[C@@H](c2ccccc2)N1` returned a viability index under setting [1] of 1.03 ± 0.022.
Under setting [1], `COc1ccc(NC(=O)N2C[C@@H](O)COC[C@H]3O[C@H](CC(=O)N4CCCCC4)CC[C@@H]32)cc1` had a viability index of 1.08 ± 0.045.
On the same count and under the same terms, to `O=C(N[C@H]1CC[C@H](CCn2cc(-c3ccccc3F)nn2)O[C@@H]1CO)c1ccc2c(c1)OCO2` belongs 1.07 ± 0.041; to `CC(C)NC(=O)N(C)C[C@@H]1Oc2ccc(NC(=O)c3ccncc3)cc2C(=O)N([C@H](C)CO)C[C@H]1C`, 0.954 ± 0.041.
As for `COc1cccc(C(=O)Nc2ccc3c(c2)C(=O)N(C)[C@@H]2CC[C@@H](CC(=O)N[C@@H](C)c4ccccc4)O[C@@H]2CO3)c1`, under setting [1], the viability index came out at 1.11 ± 0.2.
On the same count and under the same terms, to `C[C@@H]1C/C=C/C[C@@H](c2ccccc2)NC(=O)[C@H](C)N(C)C(=O)c2ccccc2O1.C[C@@H]1C/C=C\C[C@@H](c2ccccc2)NC(=O)[C@H](C)N(C)C(=O)c2ccccc2O1` belongs 1 ± 0.069.
As to `C[C@@H]1CN([C@@H](C)CO)S(=O)(=O)c2ccc(C#CCC3CCCC3)cc2O[C@H]1CN(C)C(=O)c1cnccn1`, the viability index under setting [1] amounted to 1.01 ± 0.031.
In the case of `CN1c2ccc(-c3ccc(C#N)cc3)cc2[C@H]2[C@H](CCN2S(=O)(=O)c2ccc(F)cc2)[C@H]1CO`, the viability index under setting [1] came to 1.1191 ± 0.00049.
`COc1ccc(NC(=O)N2C[C@H](O)COC[C@H]3O[C@H](CC(=O)N4CCCCC4)CC[C@@H]32)cc1`: the viability index under setting [1] came to 1.04 ± 0.052.
As to `CN1C(=O)c2cc(NC(=O)C3CCOCC3)ccc2OC[C@@H]2O[C@H](CC(=O)NCc3ccccc3F)CC[C@H]21`, under setting [1], the viability index turned out to be 1.04 ± 0.032.
Under setting [1], `COc1ccc2c3c([C@@H](CO)N(Cc4ccccc4OC)C[C@]33CCN(CC4CC4)CC3)n(C)c2c1` returned a viability index of 0.947 ± 0.025.
In turn, `O=S(=O)(c1ccccc1)N1[C@@H](CO)[C@@H]2c3ccccc3NC[C@@H]21` gave a viability index under setting [1] of 1.0551 ± 0.00095.
Still for that read-out and setting: as for `O=C(Nc1ccc(C(F)(F)F)cc1)N[C@@H]1C=C[C@@H](CC(=O)N2CCCCC2)O[C@@H]1CO`, the figure is 1.12 ± 0.13; as for `COc1ccc(S(=O)(=O)N(C)C[C@@H]2Oc3c(cccc3N(C)C)C(=O)N([C@H](C)CO)C[C@H]2C)cc1`, 1.07 ± 0.058; as for `CO[C@@H]1CN(C)C(=O)c2cc(NC(=O)c3cc(C)on3)ccc2OC[C@@H](C)N(C(=O)C2CCC2)C[C@H]1C`, 1.1 ± 0.017.
`COc1cccc(C(=O)Nc2ccc3c(c2)C(=O)N(C)[C@H]2CC[C@@H](CC(=O)NCc4ccc(F)cc4)O[C@@H]2CO3)c1` gave a viability index under setting [1] of 1.1 ± 0.077.
Still for that read-out and setting: as for `N#C[C@H]1[C@@H](c2ccccc2C2=CCCC2)[C@@H](CO)N1C(=O)c1cccc(F)c1`, the figure is 1.08 ± 0.1; as for `CCC(=O)N1[C@H](C(=O)NCCCN(C)C)[C@@H](CO)[C@@H]2Cn3c(ccc(-c4ccccc4OC)c3=O)[C@@H]21`, 1.06 ± 0.014; as for `CC(C)(C)[S@](=O)N1Cc2cc(C(=O)N3CCOCC3)nc(-c3cccc(-c4ccc(C#N)cc4)c3)c2[C@@H]1CCO`, 1.02 ± 0.026.
As for `Cc1cc(C(=O)Nc2cccc3c2O[C@@H](CN(C)C)[C@H](C)CN([C@@H](C)CO)C3=O)n(C)n1`, under setting [1], the viability index was determined as 1.047 ± 0.0022.
Compound `O=C(CCN1CCCCC1)NCC[C@@H]1CC[C@H](NS(=O)(=O)c2cccc(Cl)c2)[C@H](CO)O1` came in with a viability index under setting [1] of 0.9095 ± 0.0067.
For the compound `COCCNC(=O)[C@@H]1[C@@H](CO)[C@@H]2Cn3c(cccc3=O)[C@H]1N2S(=O)(=O)c1ccccc1C`, the viability index under setting [1] was 1.03 ± 0.085.
The same measure, in the same setting: to `Cc1noc(C)c1S(=O)(=O)N(C)C[C@H]1OCc2ccccc2-c2ccccc2C(=O)N([C@@H](C)CO)C[C@H]1C` belongs 1.06 ± 0.046; to `C[C@H]1CN([C@@H](C)CO)S(=O)(=O)c2ccc(-c3cncnc3)cc2O[C@H]1CN(C)C(=O)NC1CCCC1`, 1.01 ± 0.026; to `CCc1nc(N2[C@@H](C#N)[C@@H](c3ccccc3-c3ccc(F)cc3)[C@@H]2CO)sc1C`, 1.05 ± 0.067.
As to `Cc1cc(C(=O)Nc2cccc3c2O[C@H](CN(C)C)[C@H](C)CN([C@@H](C)CO)C3=O)n(C)n1`, the viability index under setting [1] worked out at 0.948 ± 0.16.
The same measure, in the same setting: as for `COc1cccc(NC(=O)N2CC(=O)N3[C@H](C2)[C@@H](c2ccc(C#CCC4CCCC4)cc2)[C@@H]3CO)c1`, the figure is 1.002 ± 0.0043; as for `COc1ccc2c3c([C@@H](CO)N(C[C@]33CCN(CC4CCCC4)CC3)C(=O)C3CCC3)n(C)c2c1`, 1.1 ± 0.042; as for `CCCNC(=O)N1[C@H](CO)[C@@H]2c3ccccc3N(C(=O)Nc3cccc(Cl)c3)C[C@@H]21`, 0.984 ± 0.041.
Under setting [1], `COc1ccc(NC(=O)N(C)C[C@@H]2Oc3ccc(NC(=O)Nc4cccc5ccccc45)cc3CC(=O)N([C@H](C)CO)C[C@@H]2C)cc1` yielded a viability index of 1.03 ± 0.014.
